Test results taken from patent publication US20180009889A1 (Novartis, published 2018).

What was measured:
[1] = target: Human Notch3-Gal4-VP16 (human); assay: cell-based or functional assay
[2] = target: T1, cyno LBD; assay: ELISA: IgG titrated on directly coated recombinant antigen
T1 construct: also called N3_EGF4-11_Fc cyno

[3] = target: T1, cyno LBD; assay: Biacore (SPR); set-up not stated on the sheet

B1: 20364 (antibody, human IgG1, lambda)
heavy: QVQLVESGGGLVKPGGSLRLSCAASGFTFSSYTMNWVRQAPGKGLEWVGRVKGEQFGGSIHYAASVKGRFTISRDDSKNTLYLQMNSLKTEDTAVYYCARERSRAGSIFDPWGQGTLVTVSSASTKGPSVFPLAPSSKSTSGGTAALGCLVKDYFPEPVTVSWNSGALTSGVHTFPAVLQSSGLYSLSSVVTVPSSSLGTQTYICNVNHKPSNTKVDKRV[human IgG1 Fc not shown]
light: DIVLTQPPSVSGAPGQRVTISCSGSSSNIGFNYVSWYQQLPGTAPKLLIYYNNQRPSGVPDRFSGSKSGTSASLAITGLQAEDEADYYCSTWTGTSESHVFGGGTKLTVLGQPKAAPSVTLFPPSSEELQANKATLVCLISDFYPGAVTVAWKADSSPVKAGVETTTPSKQSNNKYAASSYLSLTPEQWKSHRSYSCQVTHEGSTVEKTVAPTECS
- % inhibition, Delta 1 co-culture Notch3 reporter gene assay [1]: 91%
- % inhibition, Jagged1 co-culture Notch3 reporter gene assay [1]: 72%
- IC50, Delta 1 co-culture Notch3 reporter gene assay [1]: 1.8 nM
- IC50, Jagged1 co-culture Notch3 reporter gene assay [1]: 2 nM
- EC50 [2]: 1.5 nM
- Kd [3]: 0.1 nM

B2: 20802 (antibody, human IgG1, lambda)
heavy: QVQLVESGGGLVKPGGSLRLSCAASGFTFSSYTMNWVRQAPGKGLEWVGRVKGEQFGGSIHYAASVKGRFTISRDDSKNTLYLQMNSLKTEDTAVYYCARERSRAGSIFDPWGQGTLVTVSSASTKGPSVFPLAPSSKSTSGGTAALGCLVKDYFPEPVTVSWNSGALTSGVHTFPAVLQSSGLYSLSSVVTVPSSSLGTQTYICNVNHKPSNTKVDKRV[human IgG1 Fc not shown]
light: QSVLTQPPSVSGAPGQRVTISCSGSSSNIGFNYVSWYQQLPGTAPKLLIYYNNQRPSGVPDRFSGSKSGTSASLAITGLQAEDEADYYCSTWTGTSESHVFGGGTKLTVLGQPKAAPSVTLFPPSSEELQANKATLVCLISDFYPGAVTVAWKADSSPVKAGVETTTPSKQSNNKYAASSYLSLTPEQWKSHRSYSCQVTHEGSTVEKTVAPTECS
- % inhibition, Delta 1 co-culture Notch3 reporter gene assay [1]: 93%
- % inhibition, Jagged1 co-culture Notch3 reporter gene assay [1]: 70%
- IC50, Delta 1 co-culture Notch3 reporter gene assay [1]: 3.9 nM
- IC50, Jagged1 co-culture Notch3 reporter gene assay [1]: 2.1 nM
- EC50 [2]: 0.7 nM
